± gives the standard deviation of the averaged measurements. Restriction of a single-cycle SIVsab GFP reporter by TRIM5α v1-loop variants in CRFK cells. Human variants: read share among cells still uninfected after two challenges over input, higher = gained restriction. Rhesus variants: share among infected cells over input, higher = lost restriction. Reporter dose not given per row. No active / inactive call per row; the paper calls a change when both replicates lie above its controls (mean + 2 SD of stop or wild-type variants, or the top frameshift score). Residues outside the varied loop are taken from Swiss-Prot. The paper reads the human single-substitution scores as noise; they and the rhesus combinations repeat poorly (rank correlation 0.3 to 0.4), indel scores repeat only for the top variants, rhesus substitutions well (0.9).
What follows are sequences tested on SIVsab (simian immunodeficiency virus of sabaeus monkeys), single-cycle GFP reporter, in CRFK cells (assay: enrichment among infected cells over input (fold); higher = weaker restriction). Conditions: library: human / rhesus combinations.
Method: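 Pools of CRFK cells expressing variants of the TRIM5α v1 loop were challenged with the single-cycle reporter, sorted by GFP and sequenced; mean of two replicates.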
For “MASGILLNVKEEVTCPICLELLTEPLSLHCGHSFCQACITANHKKSMLYKEGERSCPVCRISYQPENIQPNRHVANIVEKLREVKLSPEEGQKVDHCARHGEKLLLFCQEDSKVICWLCERSQEHRGHHTFLMEEVAQEYHVKLQTALEMLRQKQQEAEKLEADIREEKASWKIQIDYDKTNVSADFEQLREILDWEESNELQNLEKEEEDILKSLTKSETEMVQQTQYMRELISELEHRLQGSMMDLLQGVDGIIKRIENMTLKKPKTFHKNQRRVFRAPDLKGMLDMFRELTDARRYWVDVTLAPNNISHAVIAEDKRQVSSRNPQIMYGAPGTRYTFPSLVNFNYCTGVLGSQSITSGKHYWEVDVSKKSAWILGVCAGFQSDAMYNIEQNENYQPKYGYWVIGLQEGVKYSVFQDGSSHTPFAPFIVPLSVIICPDRVGVFVDYEACTVSFFNITNHGFLIYKFSQCSFSKPVFPYLNPRKCTVPMTLCSPSS [rhesus TRIM5α, 332-344 = GAPGTRYTFPSLV]”, the enrichment was 1.28 ± 0.2.
Sequence “MASGILLNVKEEVTCPICLELLTEPLSLHCGHSFCQACITANHKKSMLYKEGERSCPVCRISYQPENIQPNRHVANIVEKLREVKLSPEEGQKVDHCARHGEKLLLFCQEDSKVICWLCERSQEHRGHHTFLMEEVAQEYHVKLQTALEMLRQKQQEAEKLEADIREEKASWKIQIDYDKTNVSADFEQLREILDWEESNELQNLEKEEEDILKSLTKSETEMVQQTQYMRELISELEHRLQGSMMDLLQGVDGIIKRIENMTLKKPKTFHKNQRRVFRAPDLKGMLDMFRELTDARRYWVDVTLAPNNISHAVIAEDKRQVSSRNPQIMYQAPGTLYTFPTFVNFNYCTGVLGSQSITSGKHYWEVDVSKKSAWILGVCAGFQSDAMYNIEQNENYQPKYGYWVIGLQEGVKYSVFQDGSSHTPFAPFIVPLSVIICPDRVGVFVDYEACTVSFFNITNHGFLIYKFSQCSFSKPVFPYLNPRKCTVPMTLCSPSS [rhesus TRIM5α, 332-344 = QAPGTLYTFPTFV]” has an enrichment of 0.813 ± 0.17.
For “MASGILLNVKEEVTCPICLELLTEPLSLHCGHSFCQACITANHKKSMLYKEGERSCPVCRISYQPENIQPNRHVANIVEKLREVKLSPEEGQKVDHCARHGEKLLLFCQEDSKVICWLCERSQEHRGHHTFLMEEVAQEYHVKLQTALEMLRQKQQEAEKLEADIREEKASWKIQIDYDKTNVSADFEQLREILDWEESNELQNLEKEEEDILKSLTKSETEMVQQTQYMRELISELEHRLQGSMMDLLQGVDGIIKRIENMTLKKPKTFHKNQRRVFRAPDLKGMLDMFRELTDARRYWVDVTLAPNNISHAVIAEDKRQVSSRNPQIMYGARGTRFTFPSLVNFNYCTGVLGSQSITSGKHYWEVDVSKKSAWILGVCAGFQSDAMYNIEQNENYQPKYGYWVIGLQEGVKYSVFQDGSSHTPFAPFIVPLSVIICPDRVGVFVDYEACTVSFFNITNHGFLIYKFSQCSFSKPVFPYLNPRKCTVPMTLCSPSS [rhesus TRIM5α, 332-344 = GARGTRFTFPSLV]”, the enrichment was 1.19 ± 1.1.
For “MASGILLNVKEEVTCPICLELLTEPLSLHCGHSFCQACITANHKKSMLYKEGERSCPVCRISYQPENIQPNRHVANIVEKLREVKLSPEEGQKVDHCARHGEKLLLFCQEDSKVICWLCERSQEHRGHHTFLMEEVAQEYHVKLQTALEMLRQKQQEAEKLEADIREEKASWKIQIDYDKTNVSADFEQLREILDWEESNELQNLEKEEEDILKSLTKSETEMVQQTQYMRELISELEHRLQGSMMDLLQGVDGIIKRIENMTLKKPKTFHKNQRRVFRAPDLKGMLDMFRELTDARRYWVDVTLAPNNISHAVIAEDKRQVSSRNPQIMYGAPGTLYTFPTFVNFNYCTGVLGSQSITSGKHYWEVDVSKKSAWILGVCAGFQSDAMYNIEQNENYQPKYGYWVIGLQEGVKYSVFQDGSSHTPFAPFIVPLSVIICPDRVGVFVDYEACTVSFFNITNHGFLIYKFSQCSFSKPVFPYLNPRKCTVPMTLCSPSS [rhesus TRIM5α, 332-344 = GAPGTLYTFPTFV]”, the enrichment was 0.712 ± 0.26.
In the case of “MASGILLNVKEEVTCPICLELLTEPLSLHCGHSFCQACITANHKKSMLYKEGERSCPVCRISYQPENIQPNRHVANIVEKLREVKLSPEEGQKVDHCARHGEKLLLFCQEDSKVICWLCERSQEHRGHHTFLMEEVAQEYHVKLQTALEMLRQKQQEAEKLEADIREEKASWKIQIDYDKTNVSADFEQLREILDWEESNELQNLEKEEEDILKSLTKSETEMVQQTQYMRELISELEHRLQGSMMDLLQGVDGIIKRIENMTLKKPKTFHKNQRRVFRAPDLKGMLDMFRELTDARRYWVDVTLAPNNISHAVIAEDKRQVSSRNPQIMYQAPGTRYTFQSFTNFNYCTGVLGSQSITSGKHYWEVDVSKKSAWILGVCAGFQSDAMYNIEQNENYQPKYGYWVIGLQEGVKYSVFQDGSSHTPFAPFIVPLSVIICPDRVGVFVDYEACTVSFFNITNHGFLIYKFSQCSFSKPVFPYLNPRKCTVPMTLCSPSS [rhesus TRIM5α, 332-344 = QAPGTRYTFQSFT]”, the enrichment is reported as 1.8 ± 0.69.
With “MASGILLNVKEEVTCPICLELLTEPLSLHCGHSFCQACITANHKKSMLYKEGERSCPVCRISYQPENIQPNRHVANIVEKLREVKLSPEEGQKVDHCARHGEKLLLFCQEDSKVICWLCERSQEHRGHHTFLMEEVAQEYHVKLQTALEMLRQKQQEAEKLEADIREEKASWKIQIDYDKTNVSADFEQLREILDWEESNELQNLEKEEEDILKSLTKSETEMVQQTQYMRELISELEHRLQGSMMDLLQGVDGIIKRIENMTLKKPKTFHKNQRRVFRAPDLKGMLDMFRELTDARRYWVDVTLAPNNISHAVIAEDKRQVSSRNPQIMYGAPGTLFPSFVNFNYCTGVLGSQSITSGKHYWEVDVSKKSAWILGVCAGFQSDAMYNIEQNENYQPKYGYWVIGLQEGVKYSVFQDGSSHTPFAPFIVPLSVIICPDRVGVFVDYEACTVSFFNITNHGFLIYKFSQCSFSKPVFPYLNPRKCTVPMTLCSPSS [rhesus TRIM5α, 332-344 = GAPGTLFPSFV]” the enrichment was 2.29 ± 1.2.
In the case of “MASGILLNVKEEVTCPICLELLTEPLSLHCGHSFCQACITANHKKSMLYKEGERSCPVCRISYQPENIQPNRHVANIVEKLREVKLSPEEGQKVDHCARHGEKLLLFCQEDSKVICWLCERSQEHRGHHTFLMEEVAQEYHVKLQTALEMLRQKQQEAEKLEADIREEKASWKIQIDYDKTNVSADFEQLREILDWEESNELQNLEKEEEDILKSLTKSETEMVQQTQYMRELISELEHRLQGSMMDLLQGVDGIIKRIENMTLKKPKTFHKNQRRVFRAPDLKGMLDMFRELTDARRYWVDVTLAPNNISHAVIAEDKRQVSSRNPQIMYGAPGTRYTFPTLVNFNYCTGVLGSQSITSGKHYWEVDVSKKSAWILGVCAGFQSDAMYNIEQNENYQPKYGYWVIGLQEGVKYSVFQDGSSHTPFAPFIVPLSVIICPDRVGVFVDYEACTVSFFNITNHGFLIYKFSQCSFSKPVFPYLNPRKCTVPMTLCSPSS [rhesus TRIM5α, 332-344 = GAPGTRYTFPTLV]”, the enrichment is reported as 2.15 ± 0.3.
“MASGILLNVKEEVTCPICLELLTEPLSLHCGHSFCQACITANHKKSMLYKEGERSCPVCRISYQPENIQPNRHVANIVEKLREVKLSPEEGQKVDHCARHGEKLLLFCQEDSKVICWLCERSQEHRGHHTFLMEEVAQEYHVKLQTALEMLRQKQQEAEKLEADIREEKASWKIQIDYDKTNVSADFEQLREILDWEESNELQNLEKEEEDILKSLTKSETEMVQQTQYMRELISELEHRLQGSMMDLLQGVDGIIKRIENMTLKKPKTFHKNQRRVFRAPDLKGMLDMFRELTDARRYWVDVTLAPNNISHAVIAEDKRQVSSRNPQIMYGARGTLFTFPSLVNFNYCTGVLGSQSITSGKHYWEVDVSKKSAWILGVCAGFQSDAMYNIEQNENYQPKYGYWVIGLQEGVKYSVFQDGSSHTPFAPFIVPLSVIICPDRVGVFVDYEACTVSFFNITNHGFLIYKFSQCSFSKPVFPYLNPRKCTVPMTLCSPSS [rhesus TRIM5α, 332-344 = GARGTLFTFPSLV]” showed an enrichment of 0.2139 ± 0.00084.
“MASGILLNVKEEVTCPICLELLTEPLSLHCGHSFCQACITANHKKSMLYKEGERSCPVCRISYQPENIQPNRHVANIVEKLREVKLSPEEGQKVDHCARHGEKLLLFCQEDSKVICWLCERSQEHRGHHTFLMEEVAQEYHVKLQTALEMLRQKQQEAEKLEADIREEKASWKIQIDYDKTNVSADFEQLREILDWEESNELQNLEKEEEDILKSLTKSETEMVQQTQYMRELISELEHRLQGSMMDLLQGVDGIIKRIENMTLKKPKTFHKNQRRVFRAPDLKGMLDMFRELTDARRYWVDVTLAPNNISHAVIAEDKRQVSSRNPQIMYQARGTLYTFQTFTNFNYCTGVLGSQSITSGKHYWEVDVSKKSAWILGVCAGFQSDAMYNIEQNENYQPKYGYWVIGLQEGVKYSVFQDGSSHTPFAPFIVPLSVIICPDRVGVFVDYEACTVSFFNITNHGFLIYKFSQCSFSKPVFPYLNPRKCTVPMTLCSPSS [rhesus TRIM5α, 332-344 = QARGTLYTFQTFT]” was tested, and the enrichment was 1.58 ± 0.81.
In the case of “MASGILLNVKEEVTCPICLELLTEPLSLHCGHSFCQACITANHKKSMLYKEGERSCPVCRISYQPENIQPNRHVANIVEKLREVKLSPEEGQKVDHCARHGEKLLLFCQEDSKVICWLCERSQEHRGHHTFLMEEVAQEYHVKLQTALEMLRQKQQEAEKLEADIREEKASWKIQIDYDKTNVSADFEQLREILDWEESNELQNLEKEEEDILKSLTKSETEMVQQTQYMRELISELEHRLQGSMMDLLQGVDGIIKRIENMTLKKPKTFHKNQRRVFRAPDLKGMLDMFRELTDARRYWVDVTLAPNNISHAVIAEDKRQVSSRNPQIMYQARGTRYTFQSLVNFNYCTGVLGSQSITSGKHYWEVDVSKKSAWILGVCAGFQSDAMYNIEQNENYQPKYGYWVIGLQEGVKYSVFQDGSSHTPFAPFIVPLSVIICPDRVGVFVDYEACTVSFFNITNHGFLIYKFSQCSFSKPVFPYLNPRKCTVPMTLCSPSS [rhesus TRIM5α, 332-344 = QARGTRYTFQSLV]”, the enrichment is reported as 0.751 ± 0.15.
Work on “MASGILLNVKEEVTCPICLELLTEPLSLHCGHSFCQACITANHKKSMLYKEGERSCPVCRISYQPENIQPNRHVANIVEKLREVKLSPEEGQKVDHCARHGEKLLLFCQEDSKVICWLCERSQEHRGHHTFLMEEVAQEYHVKLQTALEMLRQKQQEAEKLEADIREEKASWKIQIDYDKTNVSADFEQLREILDWEESNELQNLEKEEEDILKSLTKSETEMVQQTQYMRELISELEHRLQGSMMDLLQGVDGIIKRIENMTLKKPKTFHKNQRRVFRAPDLKGMLDMFRELTDARRYWVDVTLAPNNISHAVIAEDKRQVSSRNPQIMYGAPGTRFTFPSFVNFNYCTGVLGSQSITSGKHYWEVDVSKKSAWILGVCAGFQSDAMYNIEQNENYQPKYGYWVIGLQEGVKYSVFQDGSSHTPFAPFIVPLSVIICPDRVGVFVDYEACTVSFFNITNHGFLIYKFSQCSFSKPVFPYLNPRKCTVPMTLCSPSS [rhesus TRIM5α, 332-344 = GAPGTRFTFPSFV]” yielded an enrichment of 0.951 ± 0.013.
With “MASGILLNVKEEVTCPICLELLTEPLSLHCGHSFCQACITANHKKSMLYKEGERSCPVCRISYQPENIQPNRHVANIVEKLREVKLSPEEGQKVDHCARHGEKLLLFCQEDSKVICWLCERSQEHRGHHTFLMEEVAQEYHVKLQTALEMLRQKQQEAEKLEADIREEKASWKIQIDYDKTNVSADFEQLREILDWEESNELQNLEKEEEDILKSLTKSETEMVQQTQYMRELISELEHRLQGSMMDLLQGVDGIIKRIENMTLKKPKTFHKNQRRVFRAPDLKGMLDMFRELTDARRYWVDVTLAPNNISHAVIAEDKRQVSSRNPQIMYGAPGTRFQTLVNFNYCTGVLGSQSITSGKHYWEVDVSKKSAWILGVCAGFQSDAMYNIEQNENYQPKYGYWVIGLQEGVKYSVFQDGSSHTPFAPFIVPLSVIICPDRVGVFVDYEACTVSFFNITNHGFLIYKFSQCSFSKPVFPYLNPRKCTVPMTLCSPSS [rhesus TRIM5α, 332-344 = GAPGTRFQTLV]” the enrichment was 0.79 ± 0.43.
